We go through 84 molecules from ChEMBL document CHEMBL1201862, “PubChem BioAssay data set” (2004).

The structures appear in SMILES notation.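 Dose response: 5 concentrations. Exposure: 48 h. Format: 96-well plates. Endpoint: linear interpolation; highest concentration if not reached. GI50: concentration for 50% inhibition of growth.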 Activity calls are given as the source filed them. Rule as the data show it: active = GI50 up to about 1.1 µM and inactive = higher.

The test concerns NCI-H322M. Put plainly: NCI-60 cell line screen, 48 h.
As for `O=C(O)c1nc(-c2ccccc2)[nH]c1C(=O)O`, the GI50 is inactive: 17.1 µM.

With `NC(=O)/N=C(\N)NC(=O)c1ccccc1`, the GI50 is inactive: > 100 µM.

Consider `O=C1CCCc2cc3c(cc21)CC1(C3)Cc2cc3c(cc2C1)C(=O)CCC3`, for which the GI50 was inactive: 4.46 µM.

For `O=C(CON1C(=O)c2ccccc2C1=O)c1ccccc1`, the GI50 was inactive: > 100 µM.

Consider `Nc1nncs1`, for which the GI50 is inactive: 2790 µM.

Regarding `O=S(=O)(Cc1cnc(O)nc1O)Cc1cnc(O)nc1O`, the GI50 was inactive: > 100 µM.

On to `Cc1ccc(S(=O)(=O)c2ccsc2NC(=O)c2ccccc2)cc1`, for which the GI50 is inactive: > 100 µM.

Consider `OC(COc1cccc2ccccc12)CN1CCOCC1` (centres undefined), for which the GI50 was inactive: > 100 µM.

For `COc1ccc(OC)c(C[P+](c2ccccc2)(c2ccccc2)c2ccccc2)c1`, the GI50 is inactive: 5.32 µM.

Take `O=C(CN1CCOCC1)CC(O)(C(F)(F)F)C(F)(F)F`: the GI50 is inactive: > 100 µM.

Take `O=C(O)C1CCC(=O)N1C(=O)COc1cc(Cl)c(Cl)cc1Cl` (centres undefined): the GI50 is inactive: > 100 µM.

On to `C#CC(C)(C)Oc1cc(O)c2c(=O)c3ccccc3n(C)c2c1`, for which the GI50 was inactive: > 100 µM.

As to `CC(C)/C(Cl)=N\OC(=O)Nc1ccc(C#N)cc1`, the GI50 was inactive: 17.7 µM.

With `S=C(c1c[nH]c2ccccc12)N1CCN(Cc2ccccc2)CC1`, the GI50 was inactive: 21.8 µM.

Regarding `Nc1ccc(C2NC(=O)Cc3c2ccc2ccccc32)cc1` (centres undefined), the GI50 is inactive: > 100 µM.

Regarding `CC(=O)Nc1ncc2c(n1)-c1ccccc1OC2c1ccccc1` (centres undefined), the GI50 is inactive: > 100 µM.

With `COc1ccc(CCCNC(=O)Cc2ccccc2CO)cc1OC`, the GI50 was inactive: > 100 µM.

As to `OC(C/C(=N\N1CCCCC1)c1cccs1)(C(F)(F)F)C(F)(F)F`, the GI50 was inactive: > 10 µM.

On to `Cc1c2c(n(CCc3ccccc3)c1C)N(C)N=C(C#N)S2(=O)=O`, for which the GI50 was inactive: > 100 µM.

As to `CCc1cc(Cc2cc(CC)c(NC(=O)C(=O)Cc3ccccn3)c(CC)c2Cl)c(Cl)c(CC)c1NC(=O)C(=O)Cc1ccccn1`, the GI50 was inactive: > 100 µM.

On to `N#Cc1c(C#N)c(SSc2c(C#N)c(C#N)c(N)n2-c2ccc(F)cc2)n(-c2ccc(F)cc2)c1N`, for which the GI50 was inactive: 17.4 µM.

As to `CC(O)[C@@]1(c2ccccc2)CC2(CCN(C)CC2)O[C@H]1C` (some centres undefined), the GI50 is inactive: > 100 µM.

For `COc1cc(Cc2nccc3cc(OC)c(OC)cc23)c(/N=N/N(C)C)cc1OC`, the GI50 is inactive: 20.7 µM.

Regarding `NC(CCOCCP(=O)(O)O)C(=O)O` (centres undefined), the GI50 was inactive: > 100 µM.

Consider `Cc1cc(C)c(-c2no/c(=N\S(=O)(=O)c3ccc(Cl)cc3)o2)c(C)c1`, for which the GI50 was inactive: > 100 µM.

In the case of `CCOC(=O)CO/N=C\C1=CC(=O)C2CC1C2(C)C` (centres undefined), the GI50 was inactive: > 100 µM.

Regarding `CN/N=C(/Cc1occc(=O)c1O)C(=O)Nc1ccc(C)c(C)c1`, the GI50 is inactive: > 100 µM.

Take `CC(C)(C)c1cc(Cc2ccc(S(C)(=O)=O)cc2)c(O)c(C(C)(C)C)c1`: the GI50 is inactive: 14.2 µM.

Consider `CC(C)[C@@H]1CC[C@@H](C)C[C@H]1OC(=O)/C=C1\C(C(=O)O[C@@H]2C[C@H](C)CC[C@H]2C(C)C)[C@H]2C=C[C@@H]1O2` (some centres undefined), for which the GI50 is inactive: > 100 µM.

As for `COC(=O)CC[N+]1=CCC(c2ccccc2)(c2ccccc2)O1`, the GI50 is inactive: > 100 µM.

As for `CNC(=O)CCC(NC(=O)OC(C)(C)C)C(=O)NC(Cc1ccc(NC(=O)CCCCC(C)=O)cc1)C(=O)NCC(=O)NC` (centres undefined), the GI50 is inactive: > 100 µM.

In the case of `S=C(NN=C1NCCCCN1)Nc1ccccc1`, the GI50 is inactive: > 100 µM.

For the molecule `Cc1c(C(=O)CC(=O)C(=O)NC2C3CC4CC(C3)CC2C4)[n+]([O-])c2ccccc2[n+]1[O-]` (centres undefined), the GI50 is inactive: > 100 µM.

On to `CO/N=C(/C(=O)Nc1c[n+](CC(=O)[O-])cs1)c1csc(N)n1`, for which the GI50 was inactive: > 100 µM.

Consider `C=CC(=O)c1ccc2c(c1)OCCOCCOCCOCCOCCO2`, for which the GI50 is inactive: > 100 µM.

Consider `Cn1ncc2c(Nc3ccc(Cl)cc3)c3ccccc3nc21`, for which the GI50 is inactive: 17.5 µM.

Turning to `Cc1c(Cl)cccc1NC(=O)c1cccc([N+](=O)[O-])c1O`, the GI50 is inactive: 20.6 µM.

Consider `COc1cc(O)c2c(O)c3c(c4c2c1[C@]1(C4)C(C)=CCCC1(C)C)[C@H](O)[C@@]1(O)CC(O)=C(C(N)=O)C(=O)[C@@]1(O)C3=O`, for which the GI50 is active: 0.444 µM.

Regarding `Cc1cc(C)c(C(=O)O)c(N)c1O`, the GI50 is inactive: > 100 µM.

Take `c1ccc(N2CCN(CCN3CCc4c([nH]c5ccccc45)C3c3cccnc3)CC2)cc1` (centres undefined): the GI50 is inactive: > 100 µM.

Take `COc1cc(/N=C\N(C)C)c2ncccc2c1`: the GI50 is inactive: > 100 µM.

Take `C=CC(=O)NCCC(=O)OCn1cc(F)c(=O)[nH]c1=O`: the GI50 was inactive: 2.93 µM.

With `Cc1nc(-c2ccc(/N=C/c3ccc(N(CCOS(C)(=O)=O)CCOS(C)(=O)=O)cc3C)cc2)cs1`, the GI50 is inactive: 58.2 µM.

`N=C(/C=C/c1ccc(-c2cn3cc(/C=C/C(=N)N4CCCC4)ccc3n2)cc1)N1CCCC1`: the GI50 was inactive: > 100 µM.

Take `OCCSCCCSCCO`: the GI50 was inactive: > 100 µM.

`CSc1nc(SC)c2c(C(N)=S)n[nH]c2n1`: the GI50 was inactive: 40.2 µM.

In the case of `CN(Cc1nc2c(N)nc(N)nc2nc1N)c1ccc(C(=O)NC(CCC(=O)O)C(=O)O)cc1` (centres undefined), the GI50 is inactive: 6.12 µM.

`CCOP(=O)(OCC)[C@H]1OC(C)(C)O[C@@H]1CO`: the GI50 is inactive: > 100 µM.

As to `O=C1CC2(CCC(O)(c3cccc4ccccc34)C(C(=O)c3cccc4ccccc34)C2)C(=O)c2ccccc2N1` (centres undefined), the GI50 was inactive: 69.7 µM.

Take `COC1C(OC(=O)/C=C/C=C/C=C/C=C/C(=O)O)CCC2(CO2)C1C1(C)OC1CC=C(C)C` (centres undefined): the GI50 was inactive: 54 µM.

Take `O=C1CC(c2ccccc2)C2(C(=O)NC(=S)NC2=O)C(c2ccccc2)C1` (centres undefined): the GI50 was inactive: > 75 µM.

In the case of `O=C(CSc1nc2ccc(I)cc2c(=O)n1Cc1ccccc1)NN1C(=O)CSC1c1ccccc1` (centres undefined), the GI50 was inactive: 33.4 µM.

On to `CCCCn1cc[n+](-c2nc3ccccc3n2C)c1`, for which the GI50 was inactive: > 100 µM.

Regarding `O=c1[nH]nc(-c2ccccc2)n1/N=C\c1ccccc1`, the GI50 was inactive: > 100 µM.

Turning to `O=C(CSc1nc(-c2ccccc2)c(-c2ccccc2)[nH]1)N/N=C/c1ccc(O)cc1`, the GI50 is inactive: 28.6 µM.

Take `CCOC(=O)N/N=C(/N)Cc1ccc(Cl)cc1`: the GI50 is inactive: > 100 µM.

As for `S=c1c2cc(I)ccc2nc(S)n1Cc1ccccc1`, the GI50 is inactive: 4.66 µM.

On to `O=C1C(Cl)N(c2ccccc2[N+](=O)[O-])C1c1c[nH]c2ccccc12` (centres undefined), for which the GI50 is inactive: > 100 µM.

For `CCOc1ccccc1NC(=O)C(=O)C(/C(=N/N)C(=O)OC)c1nc2ccc([N+](=O)[O-])cc2nc1O` (centres undefined), the GI50 was inactive: > 100 µM.

Consider `S=P1(Oc2ccccc2)NNP2(=NP(N3CC3)(N3CC3)=NP(N3CC3)(N3CC3)=N2)NN1` (centres undefined), for which the GI50 was inactive: > 100 µM.

Regarding `Cn1c(=O)c2c(ncn2CCCCOc2ccc3c(c2)[n+]([O-])nc(N)[n+]3[O-])n(C)c1=O`, the GI50 was inactive: 23.2 µM.

On to `O=CN1CCN(C(=O)c2ccc(Cl)cc2Cl)C1=S`, for which the GI50 was inactive: > 100 µM.

Take `CC(NCc1c(O)ccc2c(-c3ccccc3)cc(=O)oc12)C(=O)O` (centres undefined): the GI50 is inactive: > 100 µM.

On to `CCc1n[nH]c(=O)n1N1C(=O)C2CC=CCC2C1=O` (centres undefined), for which the GI50 is inactive: > 100 µM.

For `O=c1c(-c2ccccc2)c(SCCN2CCCCCC2)n(-c2ccccc2)c(=S)n1-c1ccccc1`, the GI50 was inactive: 11.5 µM.

Take `CC1(C)Cc2c(C#N)c(N)c3c(c2CO1)C(=O)OC3=O`: the GI50 is inactive: > 100 µM.

Consider `Cc1cc(N(CCC#N)CCC#N)ccc1/C=C1N=C(/C=C\c2ccccc2)N(NC(=O)CC(=O)Nc2ccccc2Cl)C\1=O`, for which the GI50 was inactive: > 100 µM.

For `CCCc1c(C(=O)OCC)[nH]c(-c2ccc(-c3[nH]c(C(=O)OCC)c(CCC)c3C(=O)OCC)s2)c1C(=O)OCC`, the GI50 is inactive: > 100 µM.

For `CN(C)CCCN1C(=O)N(CCCN(C)C)c2c3cc(O)ccc3nc3c([N+](=O)[O-])ccc1c23`, the GI50 is inactive: 15.8 µM.

With `O=C(N/N=C/c1ccccc1O)N/N=C/c1ccccc1O`, the GI50 is inactive: > 100 µM.

In the case of `CCCC1N2CCCCC2[C@@H]2c3[nH]c4ccccc4c3CCN12` (some centres undefined), the GI50 was inactive: > 100 µM.

As for `COC(=O)[C@@H]1CN(C(=O)c2ccccc2)C(=O)N1`, the GI50 is inactive: > 100 µM.

As to `CN(C)c1nc2n(CCO)ccnc-2c(=O)n1`, the GI50 was inactive: > 100 µM.

As to `COc1cccc2cc(C(=O)Nc3ccccn3)c(=N)oc12`, the GI50 is inactive: > 100 µM.

For the molecule `O=c1[nH]nc(Cc2ccccc2)n1/N=C\CC/C=N\n1c(Cc2ccccc2)n[nH]c1=O`, the GI50 was inactive: > 100 µM.

For the molecule `CCOC(=O)C1S/C(=N\c2cccc(Cl)c2C)N=C1C` (centres undefined), the GI50 was inactive: 34.9 µM.

Turning to `COP1(=O)Oc2ccccc2C(=O)C(C(F)(F)F)(C(F)(F)F)O1` (centres undefined), the GI50 is inactive: > 100 µM.

For `O=S(=O)(O)CCSSCCS(=O)(=O)O`, the GI50 was inactive: > 1000 µM.

Take `Cc1cccc2c(=O)c3cccc([C@H](C)C(=O)O)c3oc12`: the GI50 was inactive: > 100 µM.

Consider `Cc1ccc(NCCN(C)C)c2c(=O)c3cc(O)ccc3oc12`, for which the GI50 was inactive: 14 µM.

For `O=C1CC2[C@@H](N3CCCC3)CCC(N1Cc1ccccc1)C2(O)O` (some centres undefined), the GI50 was inactive: > 100 µM.

Regarding `c1ccc2c(NCCCCCCNc3c4ccccc4nc4ccccc34)c3ccccc3nc2c1`, the GI50 is active: 0.316 µM.

With `c1ccc2c3c(c(N4CCNCC4)nc2c1)CCCC3`, the GI50 is inactive: 16.9 µM.

In the case of `O=C1OC(c2ccc(O)c(Cl)c2)(c2ccc(O)c(Cl)c2)c2ccc(Br)c3cccc1c23.O=C1OC(c2ccc(O)c(Cl)c2)(c2ccc(O)c(Cl)c2)c2cccc3c(Br)ccc1c23`, the GI50 was inactive: 12.5 µM.
